Results taken from the supplement of paper PMC11417369.
The list shows a part of the results.

Tested on: PfSIP2 AP2 domain 1 (GST-tagged)
Assay: gcPBM binding intensity (ln(normalized median fluorescence intensity)); higher = stronger DNA binding
Summary of the method: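 Using an Agilent 4 × 180k array, primer-extended double-stranded 36-bp intergenic genomic probes and negative controls were exposed for 1 h to GST-fused P. falciparum DNA-binding domains expressed in E. coli. Binding was carried out in 1× PBS with 1% milk, 0.2 mg/ml BSA, 0.5% salmon testes DNA and 0.03% Triton X-100, and protein was detected with Alexa488 anti-GST antibody and a 488 nm scan. Binding intensity is the highest Masliner-normalised natural-log median intensity across replicate spots of either probe orientation.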

Question: Which “gcPBM binding intensity (ln)” value does the source give for “TTTTCAATTAATAATACACACATGTATATATCATTA [CACACA_site7539]” here?
Answer: The value was 6.92.

Question: With “TTTTTCTTTTGATGTTGTACATATATATTATATATA [XGTACX_site2754]” as the sequence, how does the “gcPBM binding intensity (ln)” value read?
Answer: The value was 7.25.

Question: For “AAGAAAAAAAAAAAAAATATATATATAAGAACATAT [TGCATGCA_negctrl_site131]”, which “gcPBM binding intensity (ln)” value is on record?
Answer: Its value is 6.93.

Question: Which “gcPBM binding intensity (ln)” value does the source give for “GATAAAACGTTATGCACACGTACGTGGGTATTTATA [CACACA_site4954]” here?
Answer: The value was 7.28.

Question: “AACTATAAAAAAAATACACACATTACCAAAAATATA [CACACA_site1529]” was tested. Which “gcPBM binding intensity (ln)” value did it give?
Answer: Its value is 6.92.

Question: Which “gcPBM binding intensity (ln)” value does the source give for “AATCTGATTTGTATATGTACACAAATATTTTTATTT [XGTACX_site5295]” here?
Answer: The value was 6.89.

Question: For “TTTAATAATTATTAAAGTACAAAATAAATATTGAAT [XGTACX_site7538]”, which “gcPBM binding intensity (ln)” value is on record?
Answer: Its value is 7.04.

Question: For “TATAAAAAAATATATATATATATATATATATAAATA [TGCATGCA_negctrl_site22]”, which “gcPBM binding intensity (ln)” value is on record?
Answer: The value was 7.64.

Question: How did the “gcPBM binding intensity (ln)” value turn out when “TTATGTAAAATCGATACATGCATTAATCATTTTATA [TGCATGCA_site493]” was run?
Answer: The value was 7.03.

Question: With “TCATATTTCCATAGGAGTACATAAAAAAAATAATAT [XGTACX_site7601]” as the sequence, how does the “gcPBM binding intensity (ln)” value read?
Answer: The value was 7.06.

Question: How did the “gcPBM binding intensity (ln)” value turn out when “TATGATATGTTATACACACACGTATTTATGAATTGA [CACACA_site7591]” was run?
Answer: The value was 6.99.

Question: Which “gcPBM binding intensity (ln)” value does the source give for “TTCTTTATTATATGCACACGTACATATAATATATAT [CACACA_site2018]” here?
Answer: The value was 7.77.

Question: For “ATTTATATTAATGGATAAATAAATGTGTACTTGATA [CACACA_negctrl_site24]”, which “gcPBM binding intensity (ln)” value is on record?
Answer: The value was 6.96.

Question: For “ATCAACAAAACATACACACACATATAGATTTATATA [CACACA_site7415]”, which “gcPBM binding intensity (ln)” value is on record?
Answer: The value was 7.25.

Question: For “AAAAAAAAAAAACACACACACATATATATATATATA [CACACA_site732]”, which “gcPBM binding intensity (ln)” value is on record?
Answer: The value was 9.34.

Question: How did the “gcPBM binding intensity (ln)” value turn out when “AATTAGCTATTTAAAAATATATAAAATTTATATATA [CACACA_negctrl_site390]” was run?
Answer: The value was 6.72.

Question: How did the “gcPBM binding intensity (ln)” value turn out when “GAAATAGAGAGACACACACACATATATTTATGTATT [CACACA_site7794]” was run?
Answer: The value was 6.79.

Question: With “ATCATATTGAATATTTAACACACATTTCGCTTAATT [CACACA_site8652]” as the sequence, how does the “gcPBM binding intensity (ln)” value read?
Answer: Its value is 7.15.

Question: Which “gcPBM binding intensity (ln)” value does the source give for “TATATATATAAAAGTTGTACAGTGTTTTATATAGTT [XGTACX_site7085]” here?
Answer: Its value is 8.13.

Question: How did the “gcPBM binding intensity (ln)” value turn out when “TTATACTAAATGAACACACACACATCTATATTTATA [CACACA_site6199]” was run?
Answer: The value was 6.98.

Question: How did the “gcPBM binding intensity (ln)” value turn out when “AATTAAAATAATAATACACACATCATAGAAAAAGAC [CACACA_site292]” was run?
Answer: The value was 7.96.

Question: How did the “gcPBM binding intensity (ln)” value turn out when “AAATTAGACTATAATACACACATAAAAAAAAAATCA [CACACA_site7672]” was run?
Answer: Its value is 7.08.

Question: With “AATTGGGTAGGACATGCATGAGAAATTAATATTGCA [TGCATGCA_site356]” as the sequence, how does the “gcPBM binding intensity (ln)” value read?
Answer: The value was 7.17.

Question: Which “gcPBM binding intensity (ln)” value does the source give for “ATATATATATATATATGTACTAACCTTTTAAAATAT [XGTACX_site6488]” here?
Answer: Its value is 9.27.
